Measurements reported in patent publication US12037378B2, “Variant CD58 domains and uses thereof” (NOVARTIS AG, priority 2019, dated 2024).

Legend:
Assay type in all cases: cell-based, human
[1] = test system: Nalm6-luc cells; test: RTCC assay with BBMs, Nalm6-luc target cells; conditions: expanded T cells, E:T 3:1, 24 h
Description: (§1) A RTCC assay with the BBMs of Example 1 was performed to measure the ability of the BBMs to elicit RTCC against CD19+ Nalm6-luc and Karpas422-luc cells. Nalm-6 is a human B cell precursor leukemia cell line and Karpas422 is a human B-cell non-hodgkin lymphoma cell line. Briefly, Nalm6 and Karpas422 cells engineered to express the firefly luciferase reporter gene were cultured in RPM11640 culture media with 10% fetal bovine serum (FBS). 10,000 target cells with serial diluted BBMs or gH isotype antibody control (agH-CD3hi) were seeded on 384-well flat-bottom microtiter plate. Primary human T cells were isolated from cryopreserved peripheral blood mononuclear cells (PBMCs) and expanded using anti-CD3 and anti-CD28 dynabeads (Thermo fisher, catalog #11131D) and subsequently cryopreserved. Expanded T cells were thawed and aliquoted to the plate to achieve an effector cell (i.e., T cell) to target cell (i.e., cancer cell) ratio (E:T ratio) of 3:1. Plates were incubated in a 37° C. incubator with 5% CO2 overnight. Following the co-incubation, Bright Glo (Promega, catalog #E2620) was added to all wells and the luminescence signal was subsequently measured on an Envision (Perkin Elmer). Target cells with Bright Glo served as maximal signal. The percent RTCC of target cells was calculated using the following formula: [100−(sample/maximal signal)*100%].

[2] = test system: Karpas422-luc cells; test: RTCC assay with BBMs, Karpas422-luc target cells; conditions: expanded T cells, E:T 3:1, 24 h
Description: as §1

[3] = test system: CD3+ T cells; test: T cell proliferation upon co-culture with CD19 expressing target cells (Cell Trace Violet); conditions: co-culture with Karpas422 or Nalm-6, E:T 1:1, 96 hrs
Description: The BBMs described in Example 1, containing the variable regions of NEG258 and NEG218, were evaluated for their ability to induce T cell proliferation upon co-culture with CD19 expressing target cells. Briefly, Karpas422 and Nalm-6 target cells stably expressing firefly luciferase were irradiated on the day of the assay and plated at a density of 60,000 cells per well in a Costar 96 well plate (Corning, Cat #3904) in T Cell Media (TCM) [RPMI-1640 (ThermoFisher Scientific, Cat #11875-085), 10% FBS (Seradigm, Cat #1500-500), 1% L-Glutamine (Thermo Fisher Scientific, Cat #25830-081), 1% Non Essential Amino Acids (Thermo Fisher Scientific, Cat #11140-050), 1% Pen/Strep (Thermo Fisher Scientific, Cat #15070063), 1% HEPES (Thermo Fisher Scientific, Cat #15630080), Sodium Pyruvate (Thermo Fisher Scientific, Cat #11360-070), 0.1% Beta-mercaptoethanol (Thermo Fisher Scientific, Cat #21985-023)]. Peripheral blood mononuclear cells (PBMCs) previously isolated from Leukopak donors (Hemacare) and cryopreserved were thawed and Pan T cells were isolated by negative selection using the Pan T cell Isolation Kit, human [Miltenyi Biotec, Cat #130-096-535] following the manufacturer's protocol. Isolated T cells were labelled with 5 μM Cell Trace Violet (CTV) (Thermo Fisher Scientific, Cat #C34557) following the manufacturer's protocol and 60,000 CTV labeled T cells were co-cultured with 60,000 target cells to achieve an E:T ratio of 1:1. A dilution series of the NEG258- and NEG218-based BBMs and control binding molecules (agH-CD3hi) ranging from 16 μM-10,000 μM was added to cells and the plates were incubated in a 5% CO2, 37° C. incubator for 96 hrs. […] The samples were then run on BD LSR Fortessa and analyzed using FlowJo to determine % proliferated CD3+ T cells based on CD3 staining and dilution of Cell Trace Violet dye.

Molecule	RTCC activity against Nalm6-luc cells [1]	RTCC activity against Karpas422-luc cells [2]	T cell proliferation [3]	T cell proliferation, relative potency [3]
NEG258-based BBM: knob-into-hole IgG1 bispecific with NEG258-based anti-CD19 Fab and CD3hi anti-CD3 scFv (antibody) heavy: QVQLVQSGAEVKKPGASVKVSCKASGYTFTTYWIQWVRQAPGQRLEWMGAVYPGDADTRYTQKFQGRVTLTADRSASTAYMELSSLRSEDTAVYYCGRDAGLEYYALDYWGQGTLVTVSSASTKGPSVFPLAPSSKSTSGGTAALGCLVKDYFPEPVTVSWNSGALTSGVHTFPAVLQSSGLYSLSSVVTVPSSSLGTQTYICNVNHKPSNTKVDKRVEPKSCDKTHTCPPCPAPELLGGPSVFLFPPKPKDTLMISRTPEVTCVVVAVSHEDPEVKFNWYVDGVEVHNAKTKPREEQYASTYRVVSVLTVLHQDWLNGKEYKCKVSNKALAAPIEKTISKAKGQPREPQVCTLPPSREEMTKNQVSLSCAVKGFYPSDIAVEWESNGQPENNYKTTPPVLDSDGSFFLVSKLTVDKSRWQQGNVFSCSVMHEALHNHYTQKSLSLSPGK light: EIVMTQSPATLSVSPGERATLSCRASQDVGTAVAWYQQKPGQAPRLLIYWASTRHTGIPARFSGSGSGTEFTLTISSLQSEDFAVYFCQQYANFPLYTFGQGTKLEIKRTVAAPSVFIFPPSDEQLKSGTASVVCLLNNFYPREAKVQWKVDNALQSGNSQESVTEQDSKDSTYSLSSTLTLSKADYEKHKVYACEVTHQGLSSPVTKSFNRGEC EVQLVESGGGLVQPGGSLKLSCAASGFTFNTYAMNWVRQASGKGLEWVGRIRSKYNNYATYYADSVKDRFTISRDDSKSTLYLQMNSLKTEDTAVYYCVRHGNFGNSYVSWFAYWGQGTLVTVSSGGGGSGGGGSGGGGSGGGGSQAVVTQEPSLTVSPGGTVTLTCRSSTGAVTTSNYANWVQQKPGQAPRGLIGGTNKRAPWTPARFSGSLLGDKAALTLSGAQPEDEAEYFCALWYSNLWVFGGGTKLTVLGGGGSDKTHTCPPCPAPELLGGPSVFLFPPKPKDTLMISRTPEVTCVVVAVSHEDPEVKFNWYVDGVEVHNAKTKPREEQYASTYRVVSVLTVLHQDWLNGKEYKCKVSNKALAAPIEKTISKAKGQPREPQVYTLPPCREEMTKNQVSLWCLVKGFYPSDIAVEWESNGQPENNYKTTPPVLDSDGSFFLYSKLTVDKSRWQQGNVFSCSVMHEALHNRYTQKSLSLSPGK	mediated RTCC activity	mediated RTCC activity	induced proliferation of T cells; also recorded: induced T cell proliferation	more potent activity than the NEG218-based BBM
NEG218-based BBM: knob-into-hole IgG1 bispecific with NEG218-based anti-CD19 Fab and CD3hi anti-CD3 scFv (antibody) heavy: EVQLVQSGAEVKKPGESLKISCKASGYSFTNYWMNWVRQMPGKGLEWMGMIHPSDSEIRLNQKFQGQVTLSVDKSIGTAYMQWSSLKASDTAMYYCSRWYYLSSPMDYWGQGTTVTVSSASTKGPSVFPLAPSSKSTSGGTAALGCLVKDYFPEPVTVSWNSGALTSGVHTFPAVLQSSGLYSLSSVVTVPSSSLGTQTYICNVNHKPSNTKVDKRVEPKSCDKTHTCPPCPAPELLGGPSVFLFPPKPKDTLMISRTPEVTCVVVAVSHEDPEVKFNWYVDGVEVHNAKTKPREEQYASTYRVVSVLTVLHQDWLNGKEYKCKVSNKALAAPIEKTISKAKGQPREPQVCTLPPSREEMTKNQVSLSCAVKGFYPSDIAVEWESNGQPENNYKTTPPVLDSDGSFFLVSKLTVDKSRWQQGNVFSCSVMHEALHNHYTQKSLSLSPGK light: EIVMTQSPATLSVSPGERATLSCRASQDVGTAVAWYQQKPGQAPRLLIYWASTRHTGIPARFSGSGSGTEFTLTISSLQSEDFAVYFCQQYSSYPYTFGQGTKLEIKRTVAAPSVFIFPPSDEQLKSGTASVVCLLNNFYPREAKVQWKVDNALQSGNSQESVTEQDSKDSTYSLSSTLTLSKADYEKHKVYACEVTHQGLSSPVTKSFNRGEC EVQLVESGGGLVQPGGSLKLSCAASGFTFNTYAMNWVRQASGKGLEWVGRIRSKYNNYATYYADSVKDRFTISRDDSKSTLYLQMNSLKTEDTAVYYCVRHGNFGNSYVSWFAYWGQGTLVTVSSGGGGSGGGGSGGGGSGGGGSQAVVTQEPSLTVSPGGTVTLTCRSSTGAVTTSNYANWVQQKPGQAPRGLIGGTNKRAPWTPARFSGSLLGDKAALTLSGAQPEDEAEYFCALWYSNLWVFGGGTKLTVLGGGGSDKTHTCPPCPAPELLGGPSVFLFPPKPKDTLMISRTPEVTCVVVAVSHEDPEVKFNWYVDGVEVHNAKTKPREEQYASTYRVVSVLTVLHQDWLNGKEYKCKVSNKALAAPIEKTISKAKGQPREPQVYTLPPCREEMTKNQVSLWCLVKGFYPSDIAVEWESNGQPENNYKTTPPVLDSDGSFFLYSKLTVDKSRWQQGNVFSCSVMHEALHNRYTQKSLSLSPGK	mediated RTCC activity	mediated RTCC activity	induced proliferation of T cells; also recorded: induced T cell proliferation	

“Also recorded” adds a separate entry of the source.
